From patent US20240277807A1 (published 2024)

What was measured:
activin A = biological target: T1, activin A (UniProt P08476 311-426); test: Biacore
T1 chain: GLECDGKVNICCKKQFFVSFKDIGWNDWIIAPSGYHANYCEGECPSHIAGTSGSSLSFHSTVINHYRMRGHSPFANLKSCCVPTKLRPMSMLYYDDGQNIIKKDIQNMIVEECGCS

GDF11 = biological target: T2, GDF11 (UniProt O95390 299-407); test: Biacore
T2 chain: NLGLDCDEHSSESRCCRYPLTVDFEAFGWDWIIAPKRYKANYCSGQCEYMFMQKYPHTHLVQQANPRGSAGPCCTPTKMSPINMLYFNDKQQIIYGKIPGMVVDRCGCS

Kd (activin A): 0.005 nM
Kd (GDF11): 9.96 nM
B1: ActRIIA-hFc (Fc fusion)
chain: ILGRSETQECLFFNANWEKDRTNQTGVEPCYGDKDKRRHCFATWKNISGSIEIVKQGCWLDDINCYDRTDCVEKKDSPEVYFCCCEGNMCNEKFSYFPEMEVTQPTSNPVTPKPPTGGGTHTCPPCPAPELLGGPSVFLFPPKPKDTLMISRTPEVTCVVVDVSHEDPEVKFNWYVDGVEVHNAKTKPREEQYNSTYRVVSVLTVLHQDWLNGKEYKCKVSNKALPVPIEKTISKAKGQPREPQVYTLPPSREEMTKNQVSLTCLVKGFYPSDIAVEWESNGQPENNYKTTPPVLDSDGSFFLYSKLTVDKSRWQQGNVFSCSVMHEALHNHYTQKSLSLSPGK
